Reference: the supplement of paper PMC10338343
± gives the standard deviation. Over roughly 5,500 sequences, “pre-steady-state target cleavage rate” has its median near 0.1; the highest 2% begin near 0.64. The list shows a part of the results, in another mix than the full data.

Test system: MIWI (PIWIL1) piRISC loaded with piRNA #2 (30 nt)
Assay: pre-steady-state target cleavage rate (min^-1); MIWI and MILI are mouse PIWI proteins and EfPiwi is from a freshwater sponge; tags in brackets are library labels; higher = faster piRNA-guided slicing of the target
Settings: guide: piRNA #2 5'p-UUAGGUAACCCAGUAGAUCCAGAGGAAUUC; auxiliary factor: 500 nM mouse GTSF1
Procedure, shortened: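 The pre-steady-state cleavage rate came from a burst-and-steady-state fit to pooled data from three Cleave-'n-Seq trials, in which uncleaved targets were sequenced and normalised to depth and to weakly complementary targets. Each reaction held 0.1 nM transcribed, DNA-blocked target RNA library and 1 nM active affinity-purified piRISC carrying one synthetic guide, with or without 500 nM GTSF1 partner protein, in HEPES–potassium acetate buffer at 33 °C for 0–8 or 0–960 min. k3 was capped at 0.0001 min^-1.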

Sequence	pre-steady-state target cleavage rate
CUUAAGCUCUGGAUCUAGUGGGUUACCAAA	0.038 ± 0.0085
GAAUUCCACUGGAUCUAGUGGGUUACCUAA	0.397 ± 0.033
CUUAAGGAGACCAUCUACUGGGUUACGUAA	0.0031 ± 0.0021
CUUAAGCUCUGGAACUAGUGGGUUACCUAA	0.0695 ± 0.0092
CUUAAGCUCUGGAUCUACUCGGAUACCUAA	0.0207 ± 0.01
CUUAAGCUCUGGAUCUACUGCCUUACCUAA	0.034 ± 0.012
CUUAACCUCUGGAUCUACUGGGUAUCCUAA	0.0653 ± 0.016
CAAUUCCUCUGGAUCAACUGGGAUACCUAA	0.248 ± 0.036
CAAUUCGUCUGGAACUACUGGGUUACCUAA	0.517 ± 0.05
CUUAACCUCUGGAUCUACUGGGUUCACCUAA	0.128 ± 0.02
CUUAUCCUCUGCAUCUACUGGCUUACCUAA	0.0948 ± 0.0091
CUUAAGCUCUGGUUCUACUGGGAUACCUAA	0.0483 ± 0.0094
CUUAUCCUCUCGAUCUACUGGGUAACCUAA	0.297 ± 0.029
CUUAACCUCUGCAUCUACUGGGUUAGCUAA	0.102 ± 0.018
CUUAUCCUCUGUGAUCUACUGGGUUACCUAA	0.282 ± 0.027
CUUAAGCUCUGGAACUACUGGGUUACCAAA	0.0717 ± 0.0099
CUUAACCUCGUGGAUCUACUGGGUUACCUAA	0.11 ± 0.02
CUUAACCUCUGGAUCAACUGCGUUACCUAA	0.311 ± 0.043
CUUAAGCUCUGGAUCUAGUGGGAUACCUAA	0.021 ± 0.008
CUUAAGGACUGGAAGUACUGGGUUACCUAA	0.0426 ± 0.034

Sequence	pre-steady-state target cleavage rate
CUUAACCUCUGGAUCUUGUGGGUUACCUAA	0.00574 ± 0.0029
CUAUUCCUCUGCAUCUACUGGGUUACCAAA	0.31 ± 0.052
CUAUUCGUCUGGAUCUUCUGGGUUACCUAA	0.185 ± 0.033
CUAUUGCUCUGCAUCUACUGGGUUACCUAA	0.253 ± 0.047
CAAUUGGACUGGAUCUACUGGGUUACCUAA	0.245 ± 0.079
CUUAACCUCUCGAUCUACUGGGUAACCUAA	0.264 ± 0.029
GAAAUCCUCUGGAUCUACUGGGAUACCUAA	0.145 ± 0.026
CUUUUCACUCUGGAUCUACUGGGUUACCUAA	0.194 ± 0.03
CUUAAGGAGAGGAUCUACUGGGUUACGCUAA	0.0105 ± 0.0035
CUUUUGCUCUGGAUCUACUGGGUUACCUAA	0.141 ± 0.022
GAAUUCCUCUGGGAUCUACUGGGUUACCUAA	0.353 ± 0.049
GAAUUCCUCUCGAUCUUCUGGGUUACCUAA	0.62 ± 0.064
CUUAAGGUCUCGAUCUACUGGGUUACGUAA	0.375 ± 0.048
CUUAAGGAGACCACUACUGGGUUACCUAA	0.00513 ± 0.0022
CUUAAGGUCUGGAUCUACUGGGUUACCUUAA	0.115 ± 0.015
CUUUUCCUCUGGAUCUACAGGGUUACCUUA	0.225 ± 0.025
GAAUUCCUCUGGAUCUAGUGGCUUACCUAA	0.00853 ± 0.0027
CUUAAGGAGACCUUCUACUGGGUUAGGUAA	< 0.0001
CUCUUCCUCUGGAUCUACUGGGUUACCUAA	0.366 ± 0.041
CAAUUGCUCUGGAUCUACUGGCUUACCUAA	0.071 ± 0.014
